Measured values reported in publication PMC4336329 (PLoS ONE, 2015).
In all, about 310,000 compounds went through this assay and about 2,200 (0.71%) showed an effect of 50% or more. The effect is printed as a negative number. Some of the results follow.

target: human ether-à-go-go-related gene (hERG) potassium channel (human, UniProt Q12809); assay: primary screen, population patch clamp on CHO cells stably expressing hERG
Sequence (Q12809 whole entry, looked up): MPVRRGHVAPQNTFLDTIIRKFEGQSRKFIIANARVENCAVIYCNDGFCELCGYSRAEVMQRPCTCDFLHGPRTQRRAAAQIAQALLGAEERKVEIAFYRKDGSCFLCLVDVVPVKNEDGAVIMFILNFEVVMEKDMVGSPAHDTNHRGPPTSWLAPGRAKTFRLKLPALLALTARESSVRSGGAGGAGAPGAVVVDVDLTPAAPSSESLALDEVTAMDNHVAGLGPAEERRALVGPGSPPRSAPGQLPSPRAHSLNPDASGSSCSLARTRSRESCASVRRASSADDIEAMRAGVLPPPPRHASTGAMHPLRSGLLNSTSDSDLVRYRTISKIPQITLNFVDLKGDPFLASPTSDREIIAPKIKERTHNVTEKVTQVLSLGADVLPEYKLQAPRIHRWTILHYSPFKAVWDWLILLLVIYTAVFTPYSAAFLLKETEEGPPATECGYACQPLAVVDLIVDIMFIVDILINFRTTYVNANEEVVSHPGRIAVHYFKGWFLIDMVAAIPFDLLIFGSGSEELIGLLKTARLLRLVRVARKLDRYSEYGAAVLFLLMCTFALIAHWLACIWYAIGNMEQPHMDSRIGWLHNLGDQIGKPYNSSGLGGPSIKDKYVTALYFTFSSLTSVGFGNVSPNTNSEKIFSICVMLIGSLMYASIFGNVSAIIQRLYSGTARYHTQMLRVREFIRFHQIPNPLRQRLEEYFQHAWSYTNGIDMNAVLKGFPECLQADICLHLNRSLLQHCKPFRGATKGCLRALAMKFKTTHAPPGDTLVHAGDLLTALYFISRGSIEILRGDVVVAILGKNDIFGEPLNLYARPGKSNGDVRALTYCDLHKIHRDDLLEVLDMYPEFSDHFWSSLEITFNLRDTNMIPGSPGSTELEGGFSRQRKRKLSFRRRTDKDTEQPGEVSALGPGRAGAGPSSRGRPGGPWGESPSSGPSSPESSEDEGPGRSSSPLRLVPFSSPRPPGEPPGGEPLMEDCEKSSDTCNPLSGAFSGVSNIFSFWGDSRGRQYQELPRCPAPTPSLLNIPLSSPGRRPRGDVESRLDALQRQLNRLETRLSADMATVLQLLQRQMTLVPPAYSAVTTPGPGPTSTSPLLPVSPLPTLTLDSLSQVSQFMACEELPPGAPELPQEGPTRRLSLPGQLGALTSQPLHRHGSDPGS

SMILES	hERG current change (%, negative = inhibition) at 1uM [%]
CCC(C)[C@H]1CN=C(N)N1CCCc1cc(OC)c(OC)c(OC)c1 (stereo partly drawn)	10.4
COc1ccc(-c2cc(C)no2)cc1S(=O)(=O)N1CCN(c2ccccn2)CC1	-12.9
Cc1csc(C(=O)O)c1NC(=O)c1ccc(F)cc1	13.5
O=S(=O)(Nc1ccc2c(c1)OCO2)c1ccc(F)c(F)c1	2.55
CN(C)CCCNS(=O)(=O)c1ccc(Oc2ncc(C(F)(F)F)cc2Cl)cc1	-11.6
Cc1ccc(S(=O)(=O)NCCSCc2ccco2)cc1	6.43
Cc1ccc(S(=O)(=O)N2CCCN(S(=O)(=O)c3ccc(C)cc3)CC2)cc1	-5.54
O=C1NC2=C(C(=O)CCC2)C(c2ccccc2)N1 (stereo not drawn)	13.2
O=C(Nc1ncccc1O)c1ccc2c(c1)OCCO2	15.3
COc1ccc(CNC(=O)C(CCSC)NS(=O)(=O)c2ccccc2F)cc1 (stereo not drawn)	10
Cc1cc(NC(=O)c2ccc(N3CCCC3)c([N+](=O)[O-])c2)no1	17.5
O=[N+]([O-])c1cccc(S(=O)(=O)c2cccc([N+](=O)[O-])c2)c1	9.61
COc1ccc(C)cc1S(=O)(=O)N(CC(N)=O)Cc1ccccc1	17.4
CC(C)c1nc(C#N)c(NCCCn2ccnc2)o1	19.7
O=C(C1=C[C@@H](C2CC2)C[C@@H](OCCCCO)O1)N1CCOCC1	5.01
CCCC(=O)Nc1sc(C)c(C)c1C(=O)Nc1cccc(C)c1	14.2
C/C(=N\Nc1ccc(C(=O)c2c(C)cc3ccccn23)cc1[N+](=O)[O-])c1ccc(O)cc1	13.2
c1ccc(CNc2cncnc2)cc1	21.1
Cc1nn(-c2ccccc2)c(Cl)c1C(=O)N(C)CC(=O)Nc1cccc(F)c1	-2.39
COc1ccc(Nc2sc(C(=O)Nc3cccc(Cl)c3)c(N)c2C(=O)Nc2ccccc2OC)cc1	0.177
CCC(C)(C)NC(=O)C(c1ccc(OC)cc1)N(C(=O)CCC(=O)Nc1cc(C)on1)c1ccccc1F (stereo not drawn)	9.83
O=C(O)CN1C(c2ccccc2)=Nc2ccc(Br)cc2C1c1ccccc1 (stereo not drawn)	9.73

SMILES	hERG current change (%, negative = inhibition) at 1uM [%]
O=C1Nc2cc(C(=O)N3CCN(c4ccc(F)cc4)CC3)ccc2NC1CSCc1cccc(F)c1 (stereo not drawn)	13.2
O=C(NCC(=O)N1CCN(c2ccccc2F)CC1)c1cccs1	1.44
O=C(c1cc(-c2ccccc2)nc2ccccc12)N1CCN(C2CCS(=O)(=O)C2)CC1 (stereo not drawn)	-4
Cc1ccc(-c2cn3c(=S)[nH]nc3s2)cc1	6.27
CSCCC(NS(=O)(=O)c1ccc(C)cc1)C(=O)NC1CCCCC1 (stereo not drawn)	4.42
Cc1cccc(CCNC(=O)CCS(=O)(=O)c2ccc(Br)cc2)c1	14
C/C(=N\NC(=O)c1ccc(=O)[nH]n1)c1cccnc1	13.9
Cn1c(=O)[nH]c(=O)c2c1nc(CN(Cc1ccccc1)Cc1ccccc1)n2CCN1CCOCC1	-4.58
CCOc1ccc(C(=O)CCC(=O)NC2=NCCS2)cc1	13.2
O=C(CSc1n[nH]c(-c2ccncc2)n1)Nc1ccccc1	16.6
CCCCNC(=O)CCCCCn1c(=O)[nH]c2cc(C(=O)OC)ccc2c1=O	10.9
Cc1cccc(S(=O)(=O)Nc2ccc(C)c3c2OC(C)(C)C3)c1	-0.661
Cc1cc(C)c2c(c1)NC(=O)C2(O)CC(=O)c1cccs1 (stereo not drawn)	7.18
O=C(NNC(=O)c1ccccc1-n1cccc1)c1ccccc1	1.86
O=C(CSc1nnc2sc3ccccc3n12)N1CCN(c2ccccc2)CC1	2.32
CC1CN(C(=O)COC(=O)c2cccs2)CC(C)O1 (stereo not drawn)	20.2
COC(=O)c1cc(C#N)c(N(C)Cc2ccccc2)nc1C	12.7
Cc1cc(NCCCN2CCOCC2)n2ncc(-c3ccccc3)c2n1	3.96
COc1cccc(-c2cc(C(=O)NCCN3CCOCC3)no2)c1	1.57
COc1cccc2c(C)nc(Nc3nc(CSc4nnc(C)s4)cc(=O)[nH]3)nc12	9.24
Cn1c(C(=O)OC(C(=O)NC(C)(C)C)c2cccnc2)cc2sccc21 (stereo not drawn)	-8.37
Cc1ccc2nc3c(cc(C#N)c(=O)n3-c3nccs3)c(=O)n2c1	17.4

SMILES	hERG current change (%, negative = inhibition) at 1uM [%]
CCOc1ccc(N(CC(=O)N2CCOCC2)S(=O)(=O)c2ccc(F)cc2)cc1	-3.89
COc1ccc(C(=O)N2CCNC(=O)C2CC(=O)Nc2ccc(C)cc2)cc1 (stereo not drawn)	19.3
O=C(O)c1ccccc1-c1ccccc1C(=O)Nc1ccccc1Br	13.3
COc1ccc(/C=N/NC(=O)CC(=O)NCc2cccnc2)cc1	4.15
Cc1oc(-c2ccc(Cl)cc2)nc1CN1CCCC(C(=O)N2CCOCC2)C1 (stereo not drawn)	-32.9
CC12CCC(C(=O)N(CSC(=S)N/N=C\c3ccccc3O)C1=O)C2(C)C (stereo not drawn)	16.5
CCC/C(=N\NC(=O)c1cccc(C)c1)c1ccccc1	13.3
Cn1c(=O)c2c(nc(N/N=C/c3ccco3)n2C)n(C)c1=O	5.19
CC(NC(=O)c1cc(-c2ccc3c(c2)OCO3)nc2ccccc12)C(C)(C)C.Cl (stereo not drawn)	-5.28
CNC(=O)Oc1ccc2c(c1)[C@]1(C)CCN(C)[C@@H]1N2C.O=C(O)c1ccccc1O	11.7
COc1cc(NC(=O)COC(=O)CNC(=O)c2cc(C)cc(C)c2)c(C)cc1[N+](=O)[O-]	-1.75
COc1ccc(NC(=O)CN(C)C(=O)CNC(=O)c2ccc3c(c2)OCO3)cc1	11.4
O=C(COC(=O)c1cccc(N2C(=O)c3ccccc3C2=O)c1)Nc1ccccc1	18.2
CC1(C(=O)O)Oc2cccnc2NC1=O (stereo not drawn)	10.9
COC(=O)c1cc(-c2cccs2)nn1-c1ccccc1	6.83
Cc1ccc(C(=O)N2CCCC(c3ccc(Cl)cc3)=N2)cc1	9.14
COc1ccc(C(=O)Nc2cc(OC)cc3cccnc23)cc1	15.2
Cc1ccc(C2=NOC3(CC(=O)N(c4ccccc4)C3=O)C2)cc1 (stereo not drawn)	13.7
CCOc1ccccc1NC(=O)COC(=O)C1CC(=O)N(c2c(C)cccc2C)C1 (stereo not drawn)	11.8
COc1ccc(C(CNc2ccc(S(C)(=O)=O)cc2[N+](=O)[O-])N(C)C)cc1OC (stereo not drawn)	-3
N#CCCn1cc(C(=O)Nc2ccc(C(=O)O)cc2)c(-c2cccs2)n1	12.9
Cl.c1ccc(CN2CCC3(CCCc4ccccc43)CC2)cc1	-23.2

SMILES	hERG current change (%, negative = inhibition) at 1uM [%]
Cn1c(OCc2cccnc2)nc2c1c(=O)n(Cc1ccc(Cl)cc1)c(=O)n2C	-28
CCOC(=O)N1CCC(=NNc2nc(C)cc(=O)[nH]2)CC1	24.3
Cc1ccc(Nc2nc(Nc3ccc(C)cc3)nc(SC3=NCCS3)n2)cc1	-0.759
Cc1ccc(N(CC(=O)N2CC(=O)Nc3ccccc32)S(=O)(=O)c2ccc3c(c2)OCCO3)cc1	21
CCOc1ccc(NC(=O)CN(C)C(=O)c2ccccc2-n2cnnn2)cc1OCC	13.4
COCCOC(=O)c1c(NC(=O)COC(=O)Cc2cccc(OC)c2)sc(C(N)=O)c1C	15.4
O=C(/C=C/c1ccccc1)Nn1cnnc1	9.79
CCOC(=O)c1c(C)n(C)c2ccc(OC)c(NC(=O)CN3CCN(C4CCCCC4)CC3)c12	-3.13
CCn1nc(C(=O)NCCc2ccc(S(N)(=O)=O)cc2)c2ccccc2c1=O	1.53
COc1ccc(C(=O)N(Cc2ccco2)C(C(=O)NC2CCCC2)c2ccc(O)cc2)cc1OC (stereo not drawn)	-7.06
CCOc1ccc2nc(NS(=O)(=O)Cc3ccccc3)sc2c1	3.46
Cc1ccc(-c2nc(CS(=O)CC(=O)NC3CCCCC3)c(C)o2)cc1 (stereo not drawn)	15.5
O=C(CSc1nnc(C2CC2)n1Cc1ccccc1)NCc1ccccc1	5.84
COC(=O)/C(=N\Nc1ccc(Cl)cc1)Sc1nnc(-c2ccc(OC)cc2)n1C	2.29
COC(=O)c1sccc1NC(=O)Nc1ccccc1F	-0.135
COc1ccccc1N1C(=O)CC(Nc2ccc(N3CCOCC3)cc2)C1=O (stereo not drawn)	7.94
O=c1[nH]c2ccccc2c(=O)n1Cc1ccccc1	14.5
CCN(CC)C(=O)C(=O)Nc1cccc(Br)c1	4.57
CCOC(=O)C(CCCCOc1ccc([N+](=O)[O-])cc1)C(=O)OCC	-28.2
Cc1cc(C)n(-c2ncnc3sc(C)c(C)c23)n1	4.05
O=C(Nc1ccc(F)cc1)NC1(C(=O)NCc2ccc3c(c2)OCO3)CCCCC1	11.5
